Tested on: M2 ion channel (synthetic M2 peptide reconstituted in micelles)
Type: binding, influenza A virus

Row | Structure (SMILES) | binding to M2: peak at 10.9 ppm (Trp41 Hε) in 1D 1H NMR
1 | CCC(C)(C)n1nnnc1C(C(C)C)N(CCO)Cc1cc2cc(C)c(C)cc2[nH]c1=O (centres unmarked) [Compound 7, 3-(((2-hydroxyethyl)(2-methyl-1-(1-tert-pentyl-1H-tetrazole-5-yl)propyl)amino)methyl)-6,7-dimethylquinolin-2(1H)-one] | no peak formation at 10.9 ppm
2 | NC12CC3CC(CC(C3)C1)C2 [amantadine, reference compound] | new peak rising at 10.9 ppm

Source: publication PMC3769975 (ChemMedChem, 2012)
